Test results published in article PMC4336329 (PLoS ONE, 2015).
The campaign covered roughly 310,000 compounds. About 14,000 (4.5%) showed an effect of 50% or more. The effect is printed as a negative number. The list shows a part of the results.

Target: human ether-à-go-go-related gene (hERG) potassium channel (human, UniProt Q12809)
Assay: primary screen, population patch clamp on CHO cells stably expressing hERG
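Also: peak tail current of the secondary pulse compared with the same well before compound.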

human ether-à-go-go-related gene (hERG) potassium channel, sequence (Q12809 whole entry, looked up): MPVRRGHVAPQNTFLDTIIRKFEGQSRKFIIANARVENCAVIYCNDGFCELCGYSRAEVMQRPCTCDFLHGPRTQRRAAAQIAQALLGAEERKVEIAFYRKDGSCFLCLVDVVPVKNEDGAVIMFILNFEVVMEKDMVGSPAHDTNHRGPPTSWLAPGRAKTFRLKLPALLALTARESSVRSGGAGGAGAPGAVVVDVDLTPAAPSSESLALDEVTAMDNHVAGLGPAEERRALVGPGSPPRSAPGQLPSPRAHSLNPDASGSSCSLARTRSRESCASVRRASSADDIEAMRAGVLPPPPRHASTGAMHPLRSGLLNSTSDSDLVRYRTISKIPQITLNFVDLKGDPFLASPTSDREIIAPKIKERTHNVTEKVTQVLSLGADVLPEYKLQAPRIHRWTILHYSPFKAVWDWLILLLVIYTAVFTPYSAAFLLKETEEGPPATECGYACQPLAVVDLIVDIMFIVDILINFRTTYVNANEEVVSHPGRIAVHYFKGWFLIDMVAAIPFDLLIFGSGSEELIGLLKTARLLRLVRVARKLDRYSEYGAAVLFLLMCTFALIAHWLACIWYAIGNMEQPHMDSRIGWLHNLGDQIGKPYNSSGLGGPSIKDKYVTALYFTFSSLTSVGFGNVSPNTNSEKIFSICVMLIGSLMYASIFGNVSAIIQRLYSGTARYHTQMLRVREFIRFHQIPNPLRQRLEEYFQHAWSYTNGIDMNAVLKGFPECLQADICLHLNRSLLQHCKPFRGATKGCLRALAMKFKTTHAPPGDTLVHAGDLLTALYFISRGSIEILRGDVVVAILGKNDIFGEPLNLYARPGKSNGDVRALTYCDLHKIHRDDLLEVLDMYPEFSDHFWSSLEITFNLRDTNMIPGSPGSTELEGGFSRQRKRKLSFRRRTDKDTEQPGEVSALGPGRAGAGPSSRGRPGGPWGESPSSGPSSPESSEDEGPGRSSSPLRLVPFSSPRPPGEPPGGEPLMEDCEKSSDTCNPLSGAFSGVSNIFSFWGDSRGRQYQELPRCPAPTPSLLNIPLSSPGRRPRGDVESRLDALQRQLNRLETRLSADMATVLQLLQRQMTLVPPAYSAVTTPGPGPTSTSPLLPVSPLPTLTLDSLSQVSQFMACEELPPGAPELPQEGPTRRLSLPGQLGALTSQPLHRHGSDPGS

Row | SMILES | hERG current change (%, negative = inhibition) at 10uM
1 | CC(=O)N1CCN2C(=O)C1CCCC(=O)c1cc(C3CCCCC3)ccc12 (centres unmarked) | -36.4%
2 | CC(=O)N1N=C(N)SC12CCCC2 | 22%
3 | CC1CN(Cc2cc(=O)n3ccsc3n2)CC(C)O1 (centres unmarked) | 0.851%
4 | COc1ccc(-c2cc(C(F)(F)F)nc(S(C)(=O)=O)n2)cc1OC | 7.27%
5 | COCCNC(=O)Cn1ccc2cc(S(=O)(=O)N3CCCCC3)ccc21 | -4.37%
6 | O=C(NCc1ccco1)C(=O)NCc1ccccc1Cl | 3.36%
7 | CNC(=O)c1cc(C(=O)c2ccccc2C(F)(F)F)c[nH]1 | 6.24%
8 | CCCCCCc1nc(C(N)=O)c2[nH]c(=O)n(-c3ccc(OC)cc3OC)c2n1 | 12.4%
9 | CCC(CC)C(=O)Nc1cc(C(=O)OC)cc(C(=O)OC)c1 | -16.7%
10 | COc1ccc(-c2cc(C(=O)N(C)Cc3ccccc3F)c3ccccc3n2)cc1OC | -10.6%
11 | Cn1c(=O)n(C)c2cc(NC(=O)COc3ccccc3)ccc21 | 1.63%
12 | COc1cc(CNn2c(C)n[nH]c2=S)cc(Cl)c1OCc1ccc(F)cc1 | 14.4%
13 | O=C(O)CC(CC(=O)Nc1ccc(C(=O)O)cc1)c1ccccc1 (centres unmarked) | 12.9%
14 | COc1ccccc1N1CCN(S(=O)(=O)CCNC(=O)c2cc(OC)c(OC)c(OC)c2)CC1 | 19%
15 | Cc1nn(-c2ccccc2)c(C)c1/C=N/NC(=O)CSc1nnc(SCc2ccccc2Cl)s1 | -14.5%
16 | Cc1cc(C)c2c(-n3cccc3)c(C(=O)O)sc2n1 | 13.3%
17 | CN(CC(=O)Nc1ccccc1Br)C(=O)COc1cccc2c1OC(C)(C)C2 | -2.3%
18 | O=C(CCC(=O)Nc1cc(C(F)(F)F)ccc1Cl)N/N=C\c1cc([N+](=O)[O-])ccc1O | -3.26%
19 | Nc1c(C(=O)OCC(=O)Nc2ccc(OC(F)F)cc2)[nH]c(=O)[nH]c1=O | 4.54%
20 | CC1CN(C(=O)COc2coc(CN3CCc4ccccc4C3)cc2=O)CC(C)O1 (centres unmarked) | 2.75%
21 | COc1ccc(C2=NS(=O)(=O)N(C)C(C(=O)N3CCC(C(N)=O)CC3)=C2)cc1 | -12.2%
22 | COc1ccc(OCC(O)Cn2c(N3CCCCC3)nc3c2c(=O)n(C)c(=O)n3C)cc1 (centres unmarked) | -4.8%

Row | SMILES | hERG current change (%, negative = inhibition) at 10uM
23 | NC(=S)Nc1ccc(C(F)(F)F)cc1Cl | 0.127%
24 | CCC(C(=O)NCc1ccco1)n1nc(-c2ccc(OC)cc2)ccc1=O (centres unmarked) | -17.4%
25 | CN(C)CCOC1c2ccccc2C=Cc2ccccc21.O=C(O)/C=C\C(=O)O | -2.75%
26 | COc1ccc([N+](=O)[O-])cc1C(=O)NCCOc1ccc(Cl)cc1 | 6.08%
27 | O=C(NCC(c1ccco1)N1CCN(c2ccccc2)CC1)C(=O)NC1CCCC1 (centres unmarked) | 1.33%
28 | Cc1cc(C)cc(N(C(=O)Cc2cccs2)C(C(=O)NC2CCCCC2)c2ccccn2)c1 (centres unmarked) | -24%
29 | COc1cc(C(=O)NCCN=C2NS(=O)(=O)c3ccccc32)cc(OC)c1OC | 11.7%
30 | Cc1ccc2ccc3ccc(C)nc3c2n1 | 17.6%
31 | COC(CNC(=O)c1cn(C)c2ccc(S(=O)(=O)N3CCOCC3)cc2c1=O)OC | 16.1%
32 | CCCC(C(=O)NC1CCCC1)N(CC1CCCO1)C(=O)CNS(=O)(=O)c1ccc(F)cc1 (centres unmarked) | -8.24%
33 | COc1ccc(-c2cnn3cc(-c4cccc(Cl)c4)cnc23)cc1 | 15.6%
34 | CNCc1c(OCc2ccc(F)cc2)ccc2ccccc12.Cl | -49.1%
35 | COc1ccc(CN(C)CC(=O)Nc2ccccc2C(=O)NC2CC2)cc1OC | -21.7%
36 | CCOc1ccc(N/C(N)=N/c2nc(C)c(C)c(=O)[nH]2)cc1 | 8.5%
37 | O=C(c1ccc(F)cc1)c1ccc(CN2C(=O)c3ccccc3C2=O)o1 | -28.9%
38 | COc1ccc(-c2nc3ccccc3c(=O)o2)cc1OC | 22.3%
39 | Cc1cccc(OCC(=O)N2CCC3(CC2)CC(=O)c2ccccc2O3)c1 | -54.7%
40 | O=C(c1ccc(NS(=O)(=O)c2ccccc2)cc1)N1CCN(Cc2ccc3c(c2)OCO3)CC1 | -63.8%
41 | CC1(C2CC2)NC(=O)N(CC(=O)Nc2ccc(C(F)(F)F)cc2)C1=O (centres unmarked) | -17.5%
42 | CN(C)S(=O)(=O)c1ccc(NC(=O)c2cc(F)c(F)cc2Cl)cc1 | -17.2%
43 | COCc1ccc(C(=O)N2CCCC(Nc3ccc(C(C)C)cc3)C2)o1 (centres unmarked) | -0.274%
44 | Cc1nc2ccccc2n1C(=O)c1ccccc1[N+](=O)[O-] | -8.22%
